Test results as given in the RNAGym collection of RNA variant scans (doi:10.7554/elife.90254).
Read counts are not given, so values of variants with three or more changes are uncertain.

B1: OR4K15 (parent)
chain: GUUAACGGUCAUAGGCCAUGGAAACUAGGAGCACCAUUUCGCUGCCAGUGAAGAAAUGAACAAAGAAAAUCUGGGCCAGGCAGGCAUCAAAAGAAAUAGUCUUGCGCUCAACCAGAAAGUCUGUAAUCAUUUUAAGGGUA

Variants of: B1
Experiment: self-cleavage, relative activity (ratio to wild type); higher = more cleavage; in vitro, sequencing; the parent is a self-cleaving ribozyme

Row | Variant | self-cleavage
1 | U70C A78G U103C A111G A125G | 0.02
2 | A23U A66G A67G G79U A117U | 0.1
3 | A13G U39C A140G | 1.83
4 | U9C U12A A13G U87A | 0.34
5 | A11G A64G A67U | 0.54
6 | A33G A68G G74A | 0.27
7 | A23G U38C A51G A62C A111G U133C | 0
8 | A22G A63G A66G U120C | 0.64
9 | A24U C45A A63G A64G C88A A94G A95G C128U U130C | 1.3
10 | A11G A91G U100A U102C | 1.64
11 | A30G A33G A125U | 1.87
12 | A116G A126G U132C | 0.25
13 | A22G U87A U139C | 1.59
14 | U38C U100G A116U | 0.84
15 | U38C A95G U122C | 1.86
16 | U38A A68G U72A U102C A135U | 0.12
17 | A5G U9C A23G A69G A86C U102C U108C U132G | 0.01
18 | A4G U57C A82G U108A | 0.02
19 | U19C C40A U103C | 0.86
20 | U39A A116C U127A | 0.15
21 | A22G U39C A66C | 1.25
22 | A5G A55G A95G | 1
23 | U19G A118G A140G | 0.59
24 | G53A A67G A86G A91G A118G | 0.08

Row | Variant | self-cleavage
25 | A52G A60U A117G | 1.28
26 | C16U A18G A55G A86G U100C | 1.81
27 | A62G A69G U72C | 0.13
28 | A60G U87C U122C | 0.2
29 | U37C A82G U132C | 0.49
30 | A11G A95G U131C | 1.84
31 | U12C A47G A54G A125G A135U | 0.09
32 | A23G A54G A68G A82G | 0.2
33 | A24G U57A U124A | 0.89
34 | U37C U39A A68G U100C A114G | 1.17
35 | A24G U37C U38C | 1.82
36 | U87C A91C A92G A116G A118G | 0.57
37 | G31A A68G A86U U87C A111G U133A | 0.01
38 | A22U U100C A111G A117G | 0.01
39 | A5G C17U A91G | 0.45
40 | U9C G79A A118U | 0.08
41 | U37A A63G A91U U130G | 1.77
42 | A23C A47G A60U | 1.56
43 | U2C A67U U122C A135G | 0.82
44 | A13G A62G A67G A90G | 0.97
45 | U9C A30G A33G A60G A110C | 0.21
46 | G8U U43C A52G A66G | 1.72
47 | U2C U38A U49C A56G | 0.87
48 | U38C A68G A91G A125C | 0.52

Row | Variant | self-cleavage
49 | A60G A67G G83A U127A | 1.24
50 | A30U U43C A67G C77U A86G | 2.76
51 | A51G A67G A86G A92G G137A | 1.16
52 | A52G A54G U100C | 2.03
53 | U9C U26C U127A | 2.08
54 | U26A A56C A82G A114G | 0.09
55 | U9C U12C A22G A55G U97C A117G A129C | 1.58
56 | U2C U39A U49C G74A G123C | 0.08
57 | U3A A23G A55G A117U A118G | 0.6
58 | U43C A60G A89C G115A A126G | 0.03
59 | U9G A56G U72C A86G U108C U139A | 0.05
60 | G7A A27U U70C | 0.81
61 | A33C A66G A96U U103C A111U | 0.13
62 | A66G A86G C105U A111G | 0.04
63 | A24C U49C A60C U72C A90G | 0.21
64 | A22G U38C A66G U124C | 0.62
65 | A60U C61U A63G | 2.17
66 | U103C C107U A135G | 0
67 | U12C A22G U38C A47G | 0.61
68 | A24G A52G U120A | 1.47
69 | U9C U57C A92G | 1.52
70 | A64G A95G A96C | 0.17
71 | A11G A63G G123U U133C | 1.78
72 | A22G A24G A51C U57C U72A A116G | 0.02

Row | Variant | self-cleavage
73 | A55G A89G A94G U122G | 2.14
74 | A92G A116G A117G | 0.49
75 | U2C A59G A68G | 0.6
76 | A24G U49C U72A | 0.35
77 | U19C U37C U120C | 0.88
78 | A54G A69U A114U | 0.13
79 | U2A U3A A60G G84C U122C | 0.47
80 | A62U A78G A91G U139A | 0.07
81 | U43A A56G A140G | 1.66
82 | A33G A56G A118G | 0.39
83 | U43C G84A A98U C101A U127A | 0.74
84 | A23G A56G U122C | 0.76
85 | U72A A98U A111G A129G | 0.01
86 | A23G A51G U87C A98U | 1.2
87 | A63G A111G U124A | 0.02
88 | U43C A62G A69G U102C | 1.36
89 | U9C A11G A30G A33G A67G A68G U102C | 1.2
90 | A5G A89U A94G U132C | 1.7
91 | A89G A95U A96G U122C | 0.15
92 | A36U U49C A60G U100C A117G | 2.64
93 | A11G A33U U37A U100C | 2.4
94 | A55G A92G A110G | 0.1
95 | A82U A118G A126G U132C | 0.06
96 | A56G A68G A111G A125U | 0.02

Row | Variant | self-cleavage
97 | A59G G106A A110G A111G A135U | 0.01
98 | U87A U103C U124A | 0.8
99 | A33U A47G U87C U108C A117G | 0
100 | A5G U43A A52G U102A | 0.3
101 | U9C U39A A52U G83A | 2.14
102 | U39C A91G U108C U130C | 0.02
103 | U19C A66G U87C U120C | 1.7
104 | U2C U19C A116G | 0.85
105 | A5G A69C U130C | 0.5
106 | U12C U37C A47G | 0.77
107 | A33U A90G A116G | 0.64
108 | U43C U57C U103C | 0.14
109 | A60G U72C A78U U131A | 0.16
110 | U2C U9C U108C A116U U120A | 0
111 | U9A U19A A54U A111G | 0.03
112 | U38C A52G A67G A96G U103C | 1.36
113 | U3C U39C G58U A82G A111G A126G | 0
114 | A13U A30G U103G | 0.08
115 | A47G U97C A111G | 0.02
116 | G53A U100C U103G | 0.02
117 | U2C U38C A52G A91G | 0.76
118 | C46U A82U A89G | 0.25
119 | U9C U39A A59G A89U G123U U127C | 1.52
120 | A55G U87C A95G | 0.98

Row | Variant | self-cleavage
121 | A54G U87C A135G | 1.39
122 | A23G G83A U131A | 0.99
123 | A5G A22G A30G | 1.49
124 | A27G A36G C76U | 0.05
125 | A13G A22U U70A U100C | 1.36
126 | A64G A114G C121U | 0.85
127 | A47G A94G U102C U127C | 2.5
128 | A27U U87A A94U | 1.51
129 | A18U G80U A116G | 0.24
130 | A27G C61A U100C U127A | 2.9
131 | A78G U130C A134G | 0.13
132 | A91G A98G U100C | 1.64
133 | A23G U38C U57A | 0.84
134 | U2A A24G A60G | 1.62
135 | U19C A52G A94G U102C | 1.74
136 | G21U A27G C77U | 1.35
137 | A23G A56G A82G U108A U122C | 0
138 | U39C U57A A62G G74U A118G | 0.07
139 | A33G U130C U131C | 0.24
140 | A55G U120C G136A | 2.2
141 | A18G A22G U38C A47U A82G | 0.86
142 | A11G U87A U108C | 0.02
143 | A36U A55G C77U | 0.77
144 | A23G A55G A95G | 1.13

Row | Variant | self-cleavage
145 | U26A A52G A62G U100C U132C | 1.22
146 | U108C G137C G138U | 0.03
147 | A51G A56G A66G | 0.21
148 | A18G U57C A60G | 1.55
149 | C32U U38C U39A A56G U70C U87A U124A | 0.1
150 | U87C A116G U132C | 0.35
151 | A51G A52G A96U U124A | 0.96
152 | A78U A92G A134G | 0.32
153 | U38C A68G A82G | 0.37
154 | A18U G41U A92G | 0.51
155 | A33G A82G A95U A110G | 0.04
156 | G41A A59G U108C | 0
157 | U37C A90G A92U | 0.78
158 | G8A U19A A78U A117G U122C | 0.13
159 | G74C U122C U131C | 0.14
160 | U9C A13G A51G | 0.82
161 | A92G U102C U120C | 2.38
162 | A67G A116G A117G | 1.08
163 | U43C A66G A92U | 1.52
164 | U9C A86G U131C | 1.83
165 | A66G A118G U124A | 0.89
166 | A23G A67G A96G A117G | 1.88
167 | A78U A116G U133C | 0.15
